Source: publication PMC4336329 (PLoS ONE, 2015)
The campaign covered roughly 310,000 compounds. About 2,200 (0.71%) showed an effect of 50% or more. The effect is printed as a negative number. Some of the results follow.

molecular target: human ether-à-go-go-related gene (hERG) potassium channel (human, UniProt Q12809); experiment: primary screen, population patch clamp on CHO cells stably expressing hERG
Sequence (Q12809 whole entry, looked up): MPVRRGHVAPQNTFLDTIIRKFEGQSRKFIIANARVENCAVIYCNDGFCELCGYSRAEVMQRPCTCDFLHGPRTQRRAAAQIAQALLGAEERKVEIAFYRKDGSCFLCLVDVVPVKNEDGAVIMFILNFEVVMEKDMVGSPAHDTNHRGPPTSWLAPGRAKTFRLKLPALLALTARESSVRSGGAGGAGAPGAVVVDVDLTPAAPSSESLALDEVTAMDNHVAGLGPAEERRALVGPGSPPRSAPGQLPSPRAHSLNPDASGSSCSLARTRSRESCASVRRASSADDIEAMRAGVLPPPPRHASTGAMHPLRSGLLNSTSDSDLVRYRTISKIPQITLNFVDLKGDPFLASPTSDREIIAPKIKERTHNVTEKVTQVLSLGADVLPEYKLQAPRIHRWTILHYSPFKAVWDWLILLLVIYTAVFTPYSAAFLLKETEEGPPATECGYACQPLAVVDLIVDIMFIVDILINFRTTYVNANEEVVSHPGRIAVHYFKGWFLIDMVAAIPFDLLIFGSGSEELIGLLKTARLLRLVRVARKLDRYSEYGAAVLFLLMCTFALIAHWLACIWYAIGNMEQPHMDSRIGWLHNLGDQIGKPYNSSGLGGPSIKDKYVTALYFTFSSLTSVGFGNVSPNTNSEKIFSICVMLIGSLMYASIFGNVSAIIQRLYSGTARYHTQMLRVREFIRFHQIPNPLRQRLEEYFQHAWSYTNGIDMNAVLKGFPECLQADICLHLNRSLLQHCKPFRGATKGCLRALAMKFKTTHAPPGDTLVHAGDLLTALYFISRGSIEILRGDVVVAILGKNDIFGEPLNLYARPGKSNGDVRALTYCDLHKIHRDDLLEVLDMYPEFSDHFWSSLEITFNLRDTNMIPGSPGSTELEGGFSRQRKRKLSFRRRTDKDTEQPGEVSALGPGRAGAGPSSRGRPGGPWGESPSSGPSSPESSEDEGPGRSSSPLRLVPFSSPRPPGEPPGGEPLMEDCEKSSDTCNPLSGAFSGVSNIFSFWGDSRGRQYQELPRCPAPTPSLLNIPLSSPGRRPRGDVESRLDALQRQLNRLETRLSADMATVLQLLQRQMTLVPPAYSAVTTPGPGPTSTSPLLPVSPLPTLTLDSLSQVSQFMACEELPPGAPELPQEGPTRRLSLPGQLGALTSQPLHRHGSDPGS

Structure (SMILES) | hERG current change (%, negative = inhibition) at 1uM [%]
Cc1ccccc1CNS(=O)(=O)c1ccc2c(c1)OCCO2 | -8.36
Fc1cc(F)cc(Nc2nc(Cl)nc(NC3CCCC3)n2)c1 | 13.7
CC(C)Sc1nnc(NC(=O)C2CC2)s1 | 2.1
O=C(COC(=O)c1ccccc1C(=O)OCC(=O)NCCc1c[nH]c2ccccc12)NCCc1c[nH]c2ccccc12 | 9.99
C=C1CCC2C(C)(C)[C@H](O)CC[C@@]2(C)[C@@H]1COc1cc(=O)oc2ccccc12 (stereo partly shown) | 8.76
O=C(Nc1ccccn1)C1(c2ccccc2)CCCC1 | 4.41
Cn1c(=O)[nH]c(=O)c2c1nc([N+](=O)[O-])n2Cc1ccccc1 | 10
Clc1ccccc1CSc1snnc1-c1ccccc1 | 0.114
C=CCn1c(=S)[nH]c2nc3c(cc2c1=O)CCCC3 | 6.09
N#CNC(=Nc1ccc(F)cc1)SCc1ccccc1 | 5.9
CC1CCCN(C(=O)CSc2nnc(-c3ccc(O)cc3)o2)C1 (stereo not shown) | 19.6
CC12CCC(c3nnc(SCC(=O)Nc4cccc5ccccc45)nc31)C2(C)C (stereo not shown) | 9.45
COc1ccc(C(=O)Nc2ccc(S(=O)(=O)N3CCN(C)CC3)cc2)cc1[N+](=O)[O-] | 11.2
CCC(C)NC(=O)C1CCC(CNS(=O)(=O)c2cccc3nsnc23)CC1 (stereo not shown) | 9.46
O=C(NC1CCCCC1)C(c1ccco1)N(C(=O)C(F)(F)F)C1CC1 (stereo not shown) | 6.61
COc1cccc(CNC(=O)CCC2CCCN(C(=O)C3=CC(=O)CC(C)(C)O3)C2)c1 (stereo not shown) | 16
CCN(C(=O)CSc1nnc(-c2ccc3c(c2)OCO3)o1)C1CCS(=O)(=O)C1 (stereo not shown) | 14
CCCC(=O)C1C(=O)CC(C)(C)C(c2cc(C)no2)C1=O (stereo not shown) | 9.24
COc1ccccc1NC(=O)CSc1nc2[nH]ncc2c(=O)[nH]1 | 11.5
CN(Cc1ccccc1)S(=O)(=O)c1ccc(NC(=S)NC(=O)C2CCCCC2)cc1 | 5.25
Cc1cc(C)n2nc(-c3ccc(Br)cc3)cc2n1 | 9.4
Cn1c(=O)[nH]c(=O)c2c1nc(Br)n2CCCCSc1nc2ccccc2o1 | -14.1
O=C(Cn1nc(-c2ccco2)ccc1=O)Nc1cc(C(F)(F)F)ccc1Cl | 7.26
S=c1[nH]c2cc(Cl)ccc2s1 | 12.8
Nc1nc(N)nc(-c2cccc(Cl)c2Cl)n1 | 21.2
